About 2,200 (0.71%) of roughly 310,000 compounds showed an effect of 50% or more. The effect is printed as a negative number. Some of the results follow.
What follows are molecules tested against human ether-à-go-go-related gene (hERG) potassium channel (human, UniProt Q12809) (assay: primary screen, population patch clamp on CHO cells stably expressing hERG).
human ether-à-go-go-related gene (hERG) potassium channel, sequence (Q12809 whole entry, looked up): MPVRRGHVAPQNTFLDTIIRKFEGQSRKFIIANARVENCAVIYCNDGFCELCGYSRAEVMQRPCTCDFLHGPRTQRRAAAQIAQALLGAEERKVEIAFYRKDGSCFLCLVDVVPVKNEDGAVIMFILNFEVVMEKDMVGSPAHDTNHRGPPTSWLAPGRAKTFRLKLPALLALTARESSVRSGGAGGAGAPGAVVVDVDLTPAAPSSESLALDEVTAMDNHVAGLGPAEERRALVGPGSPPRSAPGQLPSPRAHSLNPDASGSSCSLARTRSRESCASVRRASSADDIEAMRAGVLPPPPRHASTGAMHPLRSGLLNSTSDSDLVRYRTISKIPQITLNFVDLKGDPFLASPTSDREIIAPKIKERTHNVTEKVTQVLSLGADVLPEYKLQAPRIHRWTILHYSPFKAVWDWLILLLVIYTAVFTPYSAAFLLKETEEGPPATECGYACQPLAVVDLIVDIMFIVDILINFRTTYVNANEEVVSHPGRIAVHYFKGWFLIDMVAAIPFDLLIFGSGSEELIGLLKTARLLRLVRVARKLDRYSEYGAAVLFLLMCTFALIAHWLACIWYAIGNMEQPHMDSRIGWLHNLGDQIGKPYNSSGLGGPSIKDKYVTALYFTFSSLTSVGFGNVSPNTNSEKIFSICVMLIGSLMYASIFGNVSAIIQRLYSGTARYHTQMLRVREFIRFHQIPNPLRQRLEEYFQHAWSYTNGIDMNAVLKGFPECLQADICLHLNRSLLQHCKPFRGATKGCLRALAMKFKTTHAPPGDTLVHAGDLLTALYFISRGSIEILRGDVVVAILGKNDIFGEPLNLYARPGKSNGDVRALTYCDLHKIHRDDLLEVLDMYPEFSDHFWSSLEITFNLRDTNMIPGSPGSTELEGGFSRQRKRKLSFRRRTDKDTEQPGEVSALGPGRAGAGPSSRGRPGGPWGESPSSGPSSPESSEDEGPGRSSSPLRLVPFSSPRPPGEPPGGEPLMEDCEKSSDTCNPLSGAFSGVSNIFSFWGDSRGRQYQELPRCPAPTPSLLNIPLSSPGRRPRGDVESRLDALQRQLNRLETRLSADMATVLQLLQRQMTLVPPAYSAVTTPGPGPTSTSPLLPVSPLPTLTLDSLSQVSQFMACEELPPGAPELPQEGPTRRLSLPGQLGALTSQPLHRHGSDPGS

Structure (SMILES)	hERG current change (%, negative = inhibition) at 1uM [%]
O=C(N/N=C/c1cc(Cl)ccc1O)c1ccncc1	2.23
N#Cc1nc(-c2ccc(Cl)cc2)oc1NCCc1ccccn1	6.75
Cc1cccc(NCc2nc3ccccc3n2C)c1	8.64
CCOc1cc(/C=C(/C#N)c2ccc(F)cc2)ccc1OCc1ccc(C(=O)O)o1	6.6
O=[N+]([O-])c1ccccc1/C=C\C=N\N1CCN(c2ccccc2)CC1	-7.95
Cc1ccc(-c2nc3c(c(=O)[nH]c(=O)n3Cc3ccccc3)n2C)s1	3.08
CC1CCN(C(=S)NC(=O)c2cccs2)CC1	11.1
CCOC(=O)c1c(NC(=O)c2ccc(Br)o2)sc2c1CCCC2	-9.54
CC(=O)Nc1ccc(S(=O)(=O)N(CC(=O)Nc2cc(C)on2)Cc2ccc(F)cc2)cc1	5.22
Cc1cc(C(=O)COC(=O)c2n[nH]c3ccccc23)c(C)n1C	15.6
COc1ccc(CNC(=O)CN(Cc2ccccc2)S(=O)(=O)c2ccc(Cl)cc2)cc1	-15.2
CCOc1ccc(-c2cn(CCC#N)cn2)cc1	15.4
COc1cc(C(=O)N/N=C(\C)c2ccc3c(c2)OCO3)cc(OC)c1OC	7.07
Cc1cc2c(ncn2Cc2ccccc2)c([N+](=O)[O-])c1C	2.99
CC(=O)NC(c1ccccc1)c1cccnc1 (centres unmarked)	7.08
COc1cc(CNC2CCCCCCC2)c(Br)cc1OCCO.Cl	13.3
CC(C)(C)c1cc(C(=O)N2CCc3ccccc32)ccn1	6.46
N#CCCN1CCN(C(=S)c2ccc(-c3cccc(Cl)c3)o2)CC1	-36.1
Cc1ccc(CNC(=O)C(=O)NCC2OCCN2C(=O)c2ccc3c(c2)OCO3)cc1 (centres unmarked)	4.48
CCCCn1c(N)c(N(Cc2ccccc2OC)C(=O)COc2ccc(C)cc2)c(=O)[nH]c1=O	4.26
NNC(=O)CSc1c(-c2ccccc2)c2cc(Cl)ccc2[nH]c1=O	15.2
Cc1ccc(CN2CCCN(Cc3ccc(C)cc3)S2(=O)=O)cc1	6.4

Structure (SMILES)	hERG current change (%, negative = inhibition) at 1uM [%]
Cc1c(C)c(C)c(S(=O)(=O)NCCc2ccncc2)c(C)c1C	5.94
CN(C)C=Nc1ccc(Cl)c(Cl)c1	10.5
CCc1ccc(NC(=O)CSc2nc3ccccc3nc2N2CCCCC2)cc1	-12.3
COc1ccc(NC(=O)CSc2ncccn2)cc1S(=O)(=O)N1CCCCC1	2.37
CCN(CC)CCNC(=O)c1cc(-c2cccnc2)nc2ccc(S(=O)(=O)N3CCC(C)CC3)cc12	-23.5
CCn1cc(C(=O)NCC(C)C)c(=O)c2cc(F)c(N3CCN(C(=O)c4ccco4)CC3)cc21	-8.13
CC(=O)c1cccc(NC(=O)CN(c2ccc(C)cc2)S(=O)(=O)c2cccc3nonc23)c1	4.37
COc1cccc(-n2nc(-c3ccnn3-c3ccc(F)cc3)c(=O)n(C)c2=O)c1	11.5
CC(=O)N1CCc2cc(S(=O)(=O)Nc3cccc(C(F)(F)F)c3)ccc21	2.7
O=C(NCCC(=O)N1CCCCC1)c1ccc(Br)cc1	8.65
Cc1ccc(NNC(=S)Nc2ccc(C(C)C)cc2)c(C)c1	-2.02
Cn1c(=O)c2[nH]c(SCc3ccccn3)nc2n(C)c1=S	0.955
COc1ccccc1NS(=O)(=O)c1cc(NC(=O)c2ccccc2F)ccc1N1CCOCC1	13.9
CCN(CC)c1ccc(/C=N/N2CCN(Cc3ccccc3)CC2)cc1	10.4
CCN(CC(=O)Nc1ccc(OC)cc1)C(=O)c1cc([N+](=O)[O-])ccc1N1CCOCC1	5.86
CC1(C)CNC(=O)c2sc(NC(=O)CN3CCOCC3)nc2C1	-0.583
O=C(NC1CC1)C1CCN(C(=O)c2ccc(Cl)cc2)CC1	17
CC1CCN(C(=O)CCc2nnc3ccc(NCc4ccco4)nn23)CC1	7.5
O=S(=O)(c1ccc(S(=O)(=O)N2CCCC3(CCCCC3)C2)cc1)N1CCCCC1	-3.24
COc1cc(OC)cc(C(=O)N[C@H](C(=O)OCn2nnc3ccccc3c2=O)C(C)C)c1	3.47
O=C1N[C@H](Cc2ccccc2)C(=O)N[C@H]1Cc1cn(S(=O)(=O)c2ccccc2)c2ccccc12	19
CCOc1ccc(CN2CCNC(=O)C2CC(=O)NCCCOc2cccnc2)cc1 (centres unmarked)	22

Structure (SMILES)	hERG current change (%, negative = inhibition) at 1uM [%]
Cc1ccc(-n2nc3c(N4CCC(C(=O)N5CCCCCC5)CC4)nnc(C)c3c2C)cc1	-13.5
O=C(NNC(=O)c1ccccc1O)c1ccc(Cl)cc1	8.29
Cc1cc(C)cc(NC(=O)C2CCN(S(C)(=O)=O)CC2)c1	10
O=C(NCCOc1ccccc1Cl)C(=O)NCCOc1ccccc1Cl	5.53
NC(=O)c1ccc2c(=O)c(O)c(-c3cc(Cl)c(N)c(Cl)c3)[nH]c2c1	16.1
COc1ccccc1-c1nnc(NC(=O)c2ccc3ncsc3c2)o1	5.51
O=C(c1cccc(F)c1)N1CCN(C(=O)c2cc(-c3ccc(Cl)cc3Cl)on2)CC1	8.3
CCCNC(=S)Nc1ccc(S(N)(=O)=O)cc1	17.2
COC(=O)c1cc(COc2ccc3ccc(=O)oc3c2)c(C)o1	21.5
CCOc1ccc2oc(C(=O)N(C)CC(=O)Nc3ccc(OCC)c(OCC)c3)c(C)c2c1	-10.6
COCCCn1cc(C(=O)c2ccccc2OCC(=O)Nc2cccc(F)c2)cc(C#N)c1=O	-5.53
CCOc1ccc(CCNS(=O)(=O)c2ccc3c(c2)N(C(C)=O)CCO3)cc1OCC	5.82
O=C(NCc1ccncc1)c1ccccc1Nc1ccc(SC(F)F)cc1	-1.38
Cc1ccc(N2C(=O)C3C4C=CC(CNC(=S)N5CCN(c6ccccc6)CC5)(O4)C3C2=O)cc1 (centres unmarked)	15.2
CCOc1cc(C2NC(=O)NC(C)=C2C(=O)OCC2CCCCC2)ccc1O (centres unmarked)	13.8
O=S(=O)(Nc1nc2ccccc2nc1Cl)c1ccccc1	15.6
Cc1ccc(O)c(NC(=O)c2cc(-c3cccs3)on2)c1	11
CCCc1cc(=O)n2[nH]c(NCc3ccccc3F)nc2n1	14
Cc1nc2cc(NC(=O)c3ccco3)ccc2n1C	8.23
COCCCNc1nc2nonc2nc1N1CCN(Cc2cccc(C)c2)CC1	12.5
COc1ccc(OC)c(S(=O)(=O)Nc2ccc3c(c2)C(=O)OC3)c1	14.5
O=C(c1cc2ccccc2o1)N1CCN(S(=O)(=O)c2cccs2)CC1	6.76

Structure (SMILES)	hERG current change (%, negative = inhibition) at 1uM [%]
COc1ccc(Cl)cc1C(=O)OCC(=O)NCc1cccs1	4.83
CCOC(=O)C1=C(N)OC(C)=C(C#N)C1c1ccco1 (centres unmarked)	6.22
O=C(COC(=O)CCC(=O)c1cccs1)Nc1ccc(Cl)cn1	7.14
O=C(Nc1ccc2c(c1)OCO2)c1cnc2n(c1=O)CCS2	1.77
COc1cc(C2C(C(=O)c3ccc(C)o3)=C(O)C(=O)N2c2cc(C)on2)cc(Br)c1O (centres unmarked)	14.8
CCn1c(-c2ccco2)n[nH]c1=S	4.92
COc1ccccc1Nc1ncc(C(=O)Nc2ccc(OC)c(OC)c2)c2ccccc12	13.1
CN(C)S(=O)(=O)c1cccc(NC(=O)c2cc(-c3cccs3)nc3ccccc23)c1	9.76
O=C(O)Cn1cc(/C=C2/NC(=O)N(c3ccc(Cl)cc3)C2=O)c2ccccc21	12.3
COc1cc(C(=O)OCC(=O)Nc2c(F)cccc2F)cc(OC)c1C	9.64
Cc1ccc(S(=O)(=O)NCC2CCC(C(=O)NCCCN3CCCC3=O)CC2)cc1 (centres unmarked)	11.2
CN(C)S(=O)(=O)N1CCC(Oc2cccc(C(=O)NCCC3=CCCCC3)c2)CC1	4.72
CCOC(=O)c1c(C)c(C(=O)Nc2ccc3c(c2)OCO3)c(C)n1C	3.25
CCN1CCCC1CNC(=O)c1ccc2c(c1)N(Cc1ccccc1F)C(=O)c1ccccc1S2(=O)=O (centres unmarked)	3.43
COc1ccc(N2CCN(C(=O)CCS(=O)(=O)c3ccc(OC)cc3)CC2)cc1	2.17
O=C(CN1C(=O)c2ccccc2C1=O)Nc1ccc(S(=O)(=O)NCC2CCCO2)cc1 (centres unmarked)	20.2
COC(=O)COc1cccc2c(=O)n(CC(=O)NCCc3ccc(OC)c(OC)c3)ccc12	9.77
CC1(C)C2CCC1(CS(=O)(=O)NC1CCCC1)C(=O)C2 (centres unmarked)	4.52
Cc1ccc(C(=O)NCC(=O)N/N=C/c2cccs2)cc1[N+](=O)[O-]	3.54
Cc1ccc(/C=N/NC(=O)CNC(=O)COc2ccccc2)cc1	19

— publication PMC4336329 (PLoS ONE, 2015)
